# Out of some 310,000 compounds screened, about 2,200 (0.71%) showed an effect of 50% or more. Effects have a minus sign here. This is one part of the list.
# Molecular target: human ether-à-go-go-related gene (hERG) potassium channel (human, UniProt Q12809)
# Test: primary screen, population patch clamp on CHO cells stably expressing hERG
# Sequence of human ether-à-go-go-related gene (hERG) potassium channel (Q12809 whole entry, looked up): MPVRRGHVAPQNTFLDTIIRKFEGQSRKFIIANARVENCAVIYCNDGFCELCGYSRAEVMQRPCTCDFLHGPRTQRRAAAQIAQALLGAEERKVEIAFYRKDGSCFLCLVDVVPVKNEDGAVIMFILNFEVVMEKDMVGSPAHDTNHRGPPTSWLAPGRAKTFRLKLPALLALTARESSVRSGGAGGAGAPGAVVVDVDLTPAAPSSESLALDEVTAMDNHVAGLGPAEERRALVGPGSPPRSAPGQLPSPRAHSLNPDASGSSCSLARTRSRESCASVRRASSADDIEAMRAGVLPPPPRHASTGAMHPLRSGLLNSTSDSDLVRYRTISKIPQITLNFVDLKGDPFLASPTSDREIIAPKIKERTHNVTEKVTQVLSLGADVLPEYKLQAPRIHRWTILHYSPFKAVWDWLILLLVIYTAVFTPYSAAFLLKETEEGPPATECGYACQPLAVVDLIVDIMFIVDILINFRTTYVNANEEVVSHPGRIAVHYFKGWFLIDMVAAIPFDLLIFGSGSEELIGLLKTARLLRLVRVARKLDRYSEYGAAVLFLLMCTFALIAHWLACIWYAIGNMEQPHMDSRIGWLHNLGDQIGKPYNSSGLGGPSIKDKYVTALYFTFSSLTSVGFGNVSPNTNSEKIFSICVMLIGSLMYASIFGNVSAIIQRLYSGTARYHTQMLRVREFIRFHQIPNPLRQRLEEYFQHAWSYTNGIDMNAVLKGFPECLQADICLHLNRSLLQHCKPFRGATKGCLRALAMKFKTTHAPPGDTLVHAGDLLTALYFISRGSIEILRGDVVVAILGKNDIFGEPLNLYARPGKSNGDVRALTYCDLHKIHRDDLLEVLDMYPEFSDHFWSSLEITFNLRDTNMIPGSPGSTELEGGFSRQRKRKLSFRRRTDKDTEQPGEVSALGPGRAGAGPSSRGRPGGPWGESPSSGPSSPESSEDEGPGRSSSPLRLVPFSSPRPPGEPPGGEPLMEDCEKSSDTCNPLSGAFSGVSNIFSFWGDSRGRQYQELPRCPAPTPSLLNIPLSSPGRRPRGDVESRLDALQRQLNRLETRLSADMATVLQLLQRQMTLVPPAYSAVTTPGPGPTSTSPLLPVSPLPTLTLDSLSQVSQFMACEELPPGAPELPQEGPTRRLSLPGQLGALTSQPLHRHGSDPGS
row,Structure (SMILES),"hERG current change (%, negative = inhibition) at 1uM [%]"
1,COc1ccc(C2CC(C(F)(F)F)n3nc(C(=O)NCc4c(C)nn(C)c4C)c(Cl)c3N2)cc1 (stereo not drawn),2.89
2,COc1ccc(CC2C(=O)OC(C)(C)OC2=O)cc1,3.77
3,Cc1ccc(NC(=O)CN(C)C(=O)c2ccc(OCc3cn4ccccc4n3)cc2)cc1,6.52
4,COc1cc2c(cc1OC)C(CSc1ccccc1C(=O)O)=NC(C)(C)C2,15.2
5,COC(=O)c1ccc2nc(C)cc(Nc3ccc(N(C)C)cc3)c2c1.Cl,-23.5
6,N#Cc1c(-c2ccc(Cl)cc2)cc(-c2cccs2)nc1SCC(=O)O,11.2
7,CC1CCc2sc(C(=O)NN=C3CCC(c4ccccc4)CC3)cc2C1 (stereo not drawn),1.71
8,O=S(=O)(c1cccs1)N1CCC(CO)(Cc2ccc(Cl)cc2)CC1,13.4
9,Cc1nc(NC(=O)c2ccco2)sc1C(=O)Nc1ccc(Br)cc1,4.19
10,COc1ccccc1-c1noc(Cn2cc(S(=O)(=O)N3CCCC3)ccc2=O)n1,3.6
11,O=C(c1cccc(Cl)c1)c1nn(-c2ccccc2)c(=O)cc1C(F)(F)F,14.4
12,Cn1c2ccccc2c(=O)c2c(=O)n(C3CCCCC3)c(-c3cccs3)nc21,0.315
13,O=C(NNC(=O)c1ccccc1O)c1ccc(-c2ccc([N+](=O)[O-])cc2)o1,12.9
14,CCC(C)Sc1ccc([C@H]2N[C@@](CC(C)C)(C(=O)OC)[C@H]3C(=O)N(CC)C(=O)[C@@H]23)cc1.O=C(O)C(F)(F)F (stereo partly drawn),-2.07
15,CC(C)NC(=O)N(O)C1N(C(C)C)C(=O)N(Cc2ccc3c(c2)OCO3)C1(C)C (stereo not drawn),18.1
16,COCCn1c(SCc2ccc(Cl)cc2)nc2c1c(=O)[nH]c(=O)n2C,12.9
17,Cc1ccc(NC(=O)NC2CCCN2S(=O)(=O)c2ccc(Cl)cc2)cc1 (stereo not drawn),-13.3
18,O=C(Nc1ccc(N2CCOCC2)cc1)c1ccc2nc(-c3ccco3)c(-c3ccco3)nc2c1,0.933
19,CC1(C)Cc2ccccc2C(=O)N1,12.4
20,Cc1ccc(S(=O)(=O)NC(=NC(Cc2ccccc2)C(=O)O)c2ccccc2)cc1 (stereo not drawn),6.63
21,NC(=O)C1CCN(C(=O)c2ccc(Cl)c(S(=O)(=O)NCc3ccco3)c2)CC1,7.34
22,Cc1ccc2nc(C)cc(N3CCOCC3)c2c1.Cl,-3.17
23,CC(=O)c1cccc(NC(=O)C2CCN(C(=O)c3ccccc3Cl)CC2)c1,13.1

row,Structure (SMILES),"hERG current change (%, negative = inhibition) at 1uM [%]"
1,O=C(COc1ccccc1[N+](=O)[O-])N(Cc1ccco1)C1CCS(=O)(=O)C1 (stereo not drawn),5.14
2,Cc1cc(NC(=O)CCCn2ccc([N+](=O)[O-])n2)n(Cc2ccc(F)cc2)n1,2.72
3,Cc1cccc(C)c1NC(=S)N1CCCCCC1,10.2
4,Cc1ccc(-c2ccc(=O)n(CC(=O)NCCCN3CCCCC3)n2)cc1,1.65
5,Cc1ccc(C)c(NC(=O)C(=O)NCCCN2CCOCC2)c1,6.58
6,COC(=O)c1[nH]c2c(c1C)C(=O)CC(c1cccs1)C2 (stereo not drawn),12.7
7,CC1CCCC(C)N1S(=O)(=O)c1ccc(NC(=O)CCn2cnc3ccccc3c2=O)cc1 (stereo not drawn),5.42
8,CC1(C)CC(=O)CC2(C1)NCC(c1ccccc1)c1c2[nH]c2ccccc12.Cl (stereo not drawn),-83.4
9,Cc1nc(N2CCOCC2)sc1C=O,0.997
10,O=C(O)CCc1nc2ccccc2n(CCc2ccccc2)c1=O,10.5
11,COc1ccc(C2c3c(ncn(CCCO)c3=N)Oc3ccc4ccccc4c32)cc1 (stereo not drawn),0.449
12,COc1nsnc1NS(=O)(=O)c1ccc(NC(=S)NC(=O)c2ccncc2)cc1,8.9
13,CC1CCCC(C)N1C(=O)COC(=O)c1cccc(S(=O)(=O)N(C)c2ccccc2)c1 (stereo not drawn),7.4
14,COc1ccc2oc(=O)cc(-c3cc4ccccc4o3)c2c1,-1.03
15,Nc1cnn(-c2ccccc2)c(=O)c1Cl,15.9
16,COc1ccc(-n2c(-c3ccc(Br)cc3)c[n+]3c2CCC3)cc1.[Br-],-21
17,COc1ccc(/C=N/NC(=O)CN2CCSCC2)c(OC)c1,8.06
18,Cc1cccc(NC(=S)c2nc3ccccc3s2)c1,10.5
19,CCOc1ccccc1Oc1c(C)oc2c(CN3CCN(CCO)CC3)c(O)ccc2c1=O,13.7
20,O=C(NCc1ccco1)c1nc2ccccc2s1,8.2
21,Cc1cccc(NC(=O)Nc2ccc([N+](=O)[O-])cc2)n1,9.91
22,Cc1nn(C(C)C(=O)N2CCOCC2)c(=O)c2nn(-c3ccccc3)c(C)c12 (stereo not drawn),-1.97
23,CC(Oc1ccc(Cl)cc1Cl)C(=O)Nc1ccc(S(=O)(=O)Nc2cnc3ccccc3n2)cc1 (stereo not drawn),12.8

row,Structure (SMILES),"hERG current change (%, negative = inhibition) at 1uM [%]"
1,Cc1ccccc1CN(C)CCc1ccccn1.O=C(O)C(=O)O,8.94
2,COc1cc(S(=O)(=O)NC2CCCC2)c(OC)cc1C,2.99
3,S=C(NCc1ccncc1)Nc1ccc(Br)cc1,9.63
4,CN1C(=O)C2(c3ccccc31)c1c(oc3ccccc3c1=O)C(=O)N2CCO (stereo not drawn),7.4
5,COc1ccc(C(=O)C2CCCN(C(=O)Cn3ccc(C)n3)C2)cc1OC (stereo not drawn),3.89
6,COCC(C)NS(=O)(=O)c1ccccc1 (stereo not drawn),14.1
7,O=C(CN1CCN(c2ccc(Cl)cc2)CC1)Nc1ccc(F)c(F)c1,-1.8
8,CCCN=C(N)/C(C(=O)OCC)=C(\O)c1ccc(OC)cc1,-2.28
9,COC(=O)CCC(=O)Nc1nnc(C(F)(F)F)s1,14.4
10,Cc1cc(C(=O)COC(=O)c2ccc3c(c2)OCO3)c(C)n1Cc1cccs1,18.4
11,COCC(C)NC(=O)CCc1nnc(C2(c3ccc(Cl)cc3)CCC2)o1 (stereo not drawn),12.5
12,CCOc1ccc(CCNC(=O)Cn2cccc2C(=O)c2ccccc2)cc1OCC,3.1
13,CC1CCCCC1NC(=O)COC(=O)c1ccccc1NC(=O)c1ccco1 (stereo not drawn),3.75
14,Cn1c(SCC(=O)c2ccccc2)nnc1-c1ccncc1,13.7
15,O=S(=O)(Nc1cccc2ccccc12)N1CCCC1,8.62
16,Cc1csc(NC(=O)CN2CCCCCC2)n1.O=C(O)C(=O)O,15.5
17,COC(=O)c1cc(OC)c(OC)c(OC)c1N,12.2
18,Cc1ccccc1OCC(=O)NCC(c1cccs1)N1CCOCC1 (stereo not drawn),3.3
19,O=C(COC(=O)C1=COCCO1)NC1CCCCCCC1,8.14
20,CN(C1CCS(=O)(=O)C1)S(=O)(=O)c1ccccc1[N+](=O)[O-] (stereo not drawn),6.34
21,Cc1ccc2c(c1)-c1c(cnn1CC(=O)NC(C)CCc1ccco1)CO2 (stereo not drawn),9.65
22,O=P(NCc1ccccc1)(Oc1ccccc1)Oc1ccccc1,2.22
23,CN(C)CCCNCC(=O)Nc1ccc(Cl)cc1C(=O)c1ccccc1.O=C(O)C(=O)O,-21.2

row,Structure (SMILES),"hERG current change (%, negative = inhibition) at 1uM [%]"
1,CC(C)CNS(=O)(=O)c1ccc(CCC(=O)NCc2ccco2)cc1,9.96
2,Cn1c(=O)c2c(nc(OCC3COC(C)(C)O3)n2Cc2ccccc2F)n(C)c1=O (stereo not drawn),-0.0798
3,Cc1ccc(C)c(NC(=O)CSc2cccc3cccnc23)c1,13.8
4,CCOC(=O)CSc1nc2ccccc2n2cnnc12,9.64
5,Cc1ccc(NC(=O)C2C3CCC(O3)C2C(=O)O)cc1C (stereo not drawn),9.77
6,O=C(Oc1nsnc1N1CCOCC1)N1CCCCC1,7.7
7,COC(=O)C(CCSC)NS(=O)(=O)c1ccc(Cl)cc1 (stereo not drawn),5.89
8,CC(C)/C=N/NC(=O)c1cccc(N2CCCC2=O)c1,6.05
9,CCCn1nc(C(=O)OCC(=O)c2ccccc2)c2ccccc2c1=O,3.49
10,COC(=O)c1cc(OC)c(OC)cc1NC(=O)CSc1ccccc1,11.3
11,CCN(Cc1ccccc1)C(=O)CSc1nncn1C,6.6
12,C/C(Cc1ccccc1)=N\NC(=O)CCCCCC(=O)N/N=C(\C)Cc1ccccc1,10.8
13,O=C1c2ccccc2C(=O)N1c1ccc(S(=O)(=O)N2CCCCC2)cc1,16.3
14,Cl.NCCc1nnc(SCc2ccc(F)cc2)o1,2.72
15,C=CCN(C(=O)Cn1nnc2ccccc21)C(C(=O)NCCOC)c1ccc(OC)cc1OC (stereo not drawn),11.7
16,COc1ccc(COC(=O)c2cc(S(=O)(=O)N3CCCCC3)ccc2N2CCOCC2)cc1,7.08
17,Cc1cc(OCC(=O)Nc2nccs2)c2c(C)cc(=O)oc2c1,11.1
18,CN(C)C(=O)Oc1ccnc2cc(Cl)ccc12,6.33
19,CC(C)(C)C(=O)NC(=S)Nc1ccc(F)cc1,10.8
20,CC(C)NC(=O)COC(=O)c1ccc(Oc2ccccc2)cc1,9.38
21,Cc1cc(NC(=O)C2CCN(S(=O)(=O)c3cnc[nH]3)CC2)ccc1Br,11.3

# From PMC4336329 (PLoS ONE, 2015)
